# From the supplement of paper PMC3334620
# In all, about 33,000 sequences were measured (“E-score (-0.5 to 0.5)”: median about -0.035, highest 2% from about 0.35 on). This is one part of the list.
# Molecular target: T1, Pdr3 (UniProt P33200)
# T1 sequence: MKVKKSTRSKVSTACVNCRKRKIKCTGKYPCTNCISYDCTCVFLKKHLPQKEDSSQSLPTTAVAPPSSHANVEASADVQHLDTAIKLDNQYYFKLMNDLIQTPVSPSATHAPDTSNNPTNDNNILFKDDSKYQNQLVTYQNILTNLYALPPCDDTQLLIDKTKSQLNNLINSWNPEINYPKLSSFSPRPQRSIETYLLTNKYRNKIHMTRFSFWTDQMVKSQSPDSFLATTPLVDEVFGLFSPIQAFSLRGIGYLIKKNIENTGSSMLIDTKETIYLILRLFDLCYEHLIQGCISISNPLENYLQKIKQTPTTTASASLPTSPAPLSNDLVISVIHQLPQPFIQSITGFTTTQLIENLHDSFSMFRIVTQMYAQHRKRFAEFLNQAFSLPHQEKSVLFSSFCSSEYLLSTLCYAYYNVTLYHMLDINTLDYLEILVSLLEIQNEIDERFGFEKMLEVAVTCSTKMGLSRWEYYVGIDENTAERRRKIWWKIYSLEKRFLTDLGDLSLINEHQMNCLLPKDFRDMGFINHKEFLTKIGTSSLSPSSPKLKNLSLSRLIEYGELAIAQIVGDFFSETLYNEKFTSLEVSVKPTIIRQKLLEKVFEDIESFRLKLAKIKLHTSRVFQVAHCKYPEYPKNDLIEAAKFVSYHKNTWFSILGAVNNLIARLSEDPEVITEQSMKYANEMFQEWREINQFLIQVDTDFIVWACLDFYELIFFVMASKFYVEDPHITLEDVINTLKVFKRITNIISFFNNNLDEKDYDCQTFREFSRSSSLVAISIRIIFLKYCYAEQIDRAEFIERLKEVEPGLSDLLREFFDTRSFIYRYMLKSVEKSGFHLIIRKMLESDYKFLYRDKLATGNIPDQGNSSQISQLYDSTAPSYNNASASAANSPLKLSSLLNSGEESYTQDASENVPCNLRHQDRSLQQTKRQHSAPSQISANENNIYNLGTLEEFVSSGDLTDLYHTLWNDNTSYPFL
# Test: PBM E-score (8-mer binding enrichment) (E-score (-0.5 to 0.5)); higher = stronger / more preferred TF binding; most listed sequences are background and not binding sites
# Conditions: protein concentration: 200 nM; construct: GST-full length
# Description: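 Universal 'all 10-mer' protein binding microarrays (Agilent AMADID 015681) probed with GST-tagged S. cerevisiae TFs (full-length or DBD) made by in vitro transcription/translation (PURExpress), about 100-200 nM. Bound TF was detected with fluorescent anti-GST. Each ungapped 8-mer (which stands for itself and its reverse complement) is scored by the PBM enrichment score (E-score), a modified Wilcoxon-Mann-Whitney statistic from -0.5 to +0.5, computed with the Universal PBM Analysis Suite. Scale: above 0.35 generally sequence-specific binding.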
row,Sequence,PBM E-score
1,GCATCCCA,0.00473
2,GGTTGGTA,0.0611
3,CATGGGGG,-0.065
4,TGCCGGCA,0.385
5,CAGCGCGA,-0.149
6,CGCTACCG,0.141
7,GGTCTCTA,-0.103
8,AGCATAGC,-0.369
9,GGAGTAAC,0.0889
10,AGCGATCA,-0.103
11,AAACGGGA,0.352
12,AAAAATCG,-0.0751
13,AAGCTCCT,-0.2
14,AAGTTCCG,0.445
15,GTGCAGGA,-0.185
16,TACTGAGA,-0.116
17,ACTTCTTA,-0.0293
18,GCCCCGAA,0.229
19,CTATGATA,0.0702
20,CAGCTCTA,-0.128
21,CTAAAGTA,-0.175
22,GGTGTACA,-0.172
23,AACGCCTC,-0.18
24,CCAGTAAC,0.06
25,ATTGCCGA,0.0449

row,Sequence,PBM E-score
1,AGCCTGCA,-0.0808
2,CTATATAG,-0.19
3,CCAATTTA,0.107
4,AGAATGGA,0.0755
5,CTTCCCCA,-0.0524
6,AACGACCT,-0.0509
7,CTGTGTGA,0.016
8,CATTGCGG,0.162
9,TTCATGAA,-0.0172
10,GCGTGTGA,0.00455
11,CGCTTATC,-0.0899
12,ACCCGTAG,-0.136
13,ACAACCTC,-0.173
14,CAGGGGCG,-0.0414
15,ATCGCAAG,-0.0969
16,AAGCGGCA,0.178
17,GAAGCAAA,-0.213
18,AAGTTGCA,-0.103
19,CCGCGCGA,0.303
20,GTTATATA,0.00607
21,TGTACGAA,0.0305
22,CTCGAGAC,0.0902
23,ATCAACTC,-0.0321
24,CGGGGCGA,0.27
25,AGTACGAT,0.0388

row,Sequence,PBM E-score
1,CAGTAGGC,-0.169
2,AACCCAAG,-0.122
3,CACTTAAC,-0.138
4,GTACGTTA,0.0883
5,ACCTCCGT,0.204
6,ACAATCAG,-0.144
7,CACGGCAC,0.0786
8,GGGTCTTA,-0.0402
9,CTTGTGGC,-0.181
10,ATTATAAT,0.213
11,GGGGCCCC,0.307
12,CTTCCGAC,0.267
13,GTTTCGTA,0.08
14,ACCAACTC,-0.0488
15,ACGCCAGT,-0.0505
16,CTTATACC,-0.119
17,AGTCTAAA,-0.203
18,CCAGAAAC,0.0423
19,CCAAACAA,-0.0083
20,ACACCATG,-0.196
21,ACGAATAC,-0.0431
22,AGTTGTGA,0.00273
23,AATACGGC,0.17
24,GGAAACAA,0.246
25,TAGATTAA,-0.0269

row,Sequence,PBM E-score
1,CCCCTGTA,-0.122
2,AACAATCC,0.197
3,CAATCAAA,-0.0425
4,ACACTAAT,0.0852
5,CGGCTGTC,0.0887
6,CCCGGCTC,0.224
7,CCTTCGAA,0.0991
8,CGAGCGTC,-0.124
9,AGACTCTA,-0.268
10,CCGCCCGC,0.241
11,ATTATTGC,0.131
12,CCTTGTAA,-0.0627
13,AAGCCTCG,-0.0127
14,GATCAGAC,-0.0736
15,ACGGCAGT,-0.0505
16,CAGCTGAC,0.0213
17,CACACTCG,0.111
18,CTATCGGC,0.112
19,CGTTGTGC,-0.0287
20,AAGGCGAC,-0.109
21,GAGATATA,-0.0202
22,ATTCCTTC,0.128
23,CACGTCGC,-0.0577
24,GCAGGAGC,-0.238
25,ATCCACAA,-0.231

row,Sequence,PBM E-score
1,AGAATTGA,-0.245
2,GTTAGTGA,-0.121
3,ACGTGTGC,-0.292
4,AAAGTCGG,-0.00755
5,AATGATCC,0.142
6,AGAACAAG,0.00381
7,AAGTAGCT,-0.228
8,GTTGTATA,-0.144
9,AAGAGGCA,-0.0517
10,CCAAGCAA,-0.11
11,CACGTGCC,-0.125
12,AGTTAGAG,-0.249
13,CTGTTTCC,0.045
14,AGCGGAAC,0.457
15,GGACAATA,0.28
16,ATAGCGGA,0.259
17,CTAGCTTA,-0.0805
18,ACTCGAGG,-0.0802
19,AGAAAAAT,-0.0145
20,CCTTGCCG,0.129
21,GACAGCGC,0.134
22,TTATCCAA,0.0824
23,GACGGAAC,0.475
24,AGCAGTGG,-0.0483
25,AGGTCTGA,-0.099

row,Sequence,PBM E-score
1,CTGCGACC,-0.0723
2,AACGCCGA,0.127
3,AGGAAATC,0.0849
4,ACGTTGCG,-0.0196
5,CCACAAAA,-0.0386
6,CCCAACAC,-0.135
7,ACTATAAT,0.0779
8,CACTATGA,-0.145
9,AGACTCTG,-0.206
10,AAAAATGT,0.0159
11,CCTGTAAC,-0.202
12,GCCATAGC,-0.0853
13,AAATCATC,-0.0344
14,ACCGTGCA,-0.103
15,CCAGAATA,-0.00355
16,AAAAACTC,-0.0574
17,AACATCTA,-0.116
18,CCAACTAA,-0.0457
19,CACGGTCC,0.00578
20,CCACTTCA,0.0476
21,ATTACTGC,0.0652
22,GTAGAGAA,-0.0493
23,AGCTCCCA,-0.172
24,GCGATCGA,0.104
25,ATCAAACG,0.125

row,Sequence,PBM E-score
1,ACTTCGGC,0.0951
2,ATTGAAAA,0.0454
3,ATCCCGAT,0.302
4,GCTAATTA,0.0889
5,CAGATTCA,-0.112
6,ACCCTTCC,0.203
7,GTGGTAAA,-0.16
8,GATTCTGC,0.0967
9,CGCGGCCC,0.278
10,GAGCTGAC,0.19
11,CTTTCATC,-0.158
12,TCATACGA,-0.0474
13,CGTTAGGA,-0.00197
14,CGGTTTAA,0.0891
15,CATCAGAC,-0.0231
16,CACTATTA,0.0367
17,ACGCCCAT,0.0937
18,ACCCATGG,0.0459
19,CGATATTA,0.231
20,CCATGAGG,-0.105
21,GCAGAAAA,0.0694
22,CGGAAGAC,0.393
